Among all 310,000 compounds or so, about 14,000 (4.5%) showed an effect of 50% or more. Effects have a minus sign here. Some of the results follow.
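Further: peak tail current of the secondary pulse compared with the same well before compound.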

The target of the experiment is human ether-à-go-go-related gene (hERG) potassium channel (human, UniProt Q12809). Briefly: primary screen, population patch clamp on CHO cells stably expressing hERG.
Sequence of human ether-à-go-go-related gene (hERG) potassium channel (Q12809 whole entry, looked up): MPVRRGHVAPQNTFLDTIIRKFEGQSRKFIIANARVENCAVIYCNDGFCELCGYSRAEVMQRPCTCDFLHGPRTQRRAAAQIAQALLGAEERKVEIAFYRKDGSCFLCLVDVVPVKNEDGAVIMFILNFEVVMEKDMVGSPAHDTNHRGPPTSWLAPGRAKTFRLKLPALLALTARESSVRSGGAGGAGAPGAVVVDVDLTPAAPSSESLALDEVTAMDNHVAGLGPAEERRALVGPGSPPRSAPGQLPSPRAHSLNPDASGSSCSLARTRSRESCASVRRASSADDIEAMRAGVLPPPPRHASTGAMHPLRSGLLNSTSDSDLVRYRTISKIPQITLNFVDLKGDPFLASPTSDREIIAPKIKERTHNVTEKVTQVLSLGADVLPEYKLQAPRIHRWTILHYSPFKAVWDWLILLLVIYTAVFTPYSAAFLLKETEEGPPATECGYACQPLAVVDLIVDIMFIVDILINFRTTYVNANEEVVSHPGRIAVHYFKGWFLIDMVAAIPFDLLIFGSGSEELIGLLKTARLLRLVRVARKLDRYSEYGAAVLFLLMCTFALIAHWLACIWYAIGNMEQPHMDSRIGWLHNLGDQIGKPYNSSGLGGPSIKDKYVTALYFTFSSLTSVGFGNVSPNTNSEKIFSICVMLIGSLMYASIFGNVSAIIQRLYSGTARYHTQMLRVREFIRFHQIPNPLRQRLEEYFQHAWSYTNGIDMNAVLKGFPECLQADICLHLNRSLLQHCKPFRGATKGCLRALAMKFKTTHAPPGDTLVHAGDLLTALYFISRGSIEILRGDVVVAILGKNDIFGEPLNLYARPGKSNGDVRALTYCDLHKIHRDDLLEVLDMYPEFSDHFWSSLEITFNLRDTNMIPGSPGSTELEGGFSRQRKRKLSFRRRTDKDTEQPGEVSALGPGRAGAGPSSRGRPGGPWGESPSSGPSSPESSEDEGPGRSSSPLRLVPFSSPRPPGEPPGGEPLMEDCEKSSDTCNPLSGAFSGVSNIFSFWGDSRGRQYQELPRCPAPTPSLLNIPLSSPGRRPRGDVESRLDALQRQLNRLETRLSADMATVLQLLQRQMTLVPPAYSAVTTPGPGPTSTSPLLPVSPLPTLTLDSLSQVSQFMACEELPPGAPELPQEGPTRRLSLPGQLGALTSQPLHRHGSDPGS
As for `CSc1nc2ccc3nc(NC(=O)c4cccs4)sc3c2s1`, the “hERG current change (%, negative = inhibition) at 10uM” value is -19%.
The same measure for `O=C(CN1C(=O)c2ccccc2C1=O)OCC(=O)N1CCN(c2ccccc2)CC1`: -0.838%; for `O=C(Cn1cc2c(n1)CCCCC2)NC1CCCCCC1`: 0.992%; for `CC(=O)NCC12CC3CC(C1)CC(C(=O)O)(C3)C2`: 5.01%.
The same measure for `CCOC(=O)C1(CC2CCCCO2)CCN(S(=O)(=O)c2cc(C)cs2)CC1` (centres unmarked): -59%.
The same measure for `Cc1cccc2c1NC(=O)C2(c1ccc(O)cc1)c1ccc(O)cc1`: 6.23%; for `CC(=O)Oc1ccc(N(C(C)=O)S(=O)(=O)c2ccc3ccccc3c2)cc1Br`: 11.6%; for `O=C(Nc1ccc(Cl)c(Cl)c1)c1ccncc1`: -40.1%.
As to `CCCCN(C)C(=O)CCCCn1c(=O)[nH]c2cc(OCC)c(OCC)cc2c1=O`, the “hERG current change (%, negative = inhibition) at 10uM” value is -1.7%.
As to `CCN(CC)c1ccc(C(=O)NNC(=O)CCNC(=O)c2ccccc2)cc1`, the “hERG current change (%, negative = inhibition) at 10uM” value is -15.3%.
For the compound `Cc1ccc(/C=C2/SC(=S)N(CCC(=O)NCCCN3CCOCC3)C2=O)cc1`, the “hERG current change (%, negative = inhibition) at 10uM” value is -8.68%.
`c1ccc2c(c1)CCCn1nnnc1-2`: the “hERG current change (%, negative = inhibition) at 10uM” value came out at 5.33%.
The same measure for `COc1ccc(CCNC(=O)C2CCCCC2C(=O)O)cc1OC` (centres unmarked): -2.9%; for `CN1CCN(c2nc(-c3ccccn3)nc3ccccc23)CC1`: -51.4%; for `CCCn1nc([N+](=O)[O-])c(C(C#N)c2nc3ccccc3s2)c(Cl)c1=O` (centres unmarked): 18.4%.
`O=C(NCCN1CCOCC1)c1ccc2c(c1)N(Cc1ccccc1F)C(=O)CS2`: the “hERG current change (%, negative = inhibition) at 10uM” value is given as -8.97%.
With `COc1cccc(CNC(=O)c2ccc3c(c2)S(=O)(=O)N=C2CCCCCN23)c1`, the “hERG current change (%, negative = inhibition) at 10uM” value is -0.139%.
For `Cc1nn(C)c(C)c1NS(=O)(=O)c1cccc(Br)c1`, the “hERG current change (%, negative = inhibition) at 10uM” value was found to be 18.3%.
The same measure for `COc1ccc(NC(=O)c2c(NC(=O)CCC(=O)O)sc3c2CCCCC3)cc1`: 23.8%; for `Cc1cc(O)c(C(C[N+](=O)[O-])c2ccc(Cl)cc2Cl)c(=O)o1` (centres unmarked): 6.51%.
Then `O=C(/C=C/c1ccc(Cl)c([N+](=O)[O-])c1)Nc1cccc(NC(=O)c2ccco2)c1`, with 2.38%.
Then `CSc1ccccc1NC(=O)CN1CC(C)OC(C)C1` (centres unmarked), with -3.75%; and `Cc1ccc(C(CCNC(C)c2cccs2)c2ccco2)cc1` (centres unmarked), with -57.1%; and `O=C(N/N=C/c1c(Cl)cccc1Cl)c1ccc(F)cc1`, with -3.1%.
With `CCOC(=O)C1=C(C)OC(N)=C(C#N)C12C(=O)N(C)c1ccccc12` (centres unmarked), the “hERG current change (%, negative = inhibition) at 10uM” value came to 15.2%.
As to `CC(NC(=O)CC1SC(N)=NC1=O)c1ccccc1` (centres unmarked), the “hERG current change (%, negative = inhibition) at 10uM” value worked out at 18.6%.
Then `Cc1ccc(S(=O)(=O)NCCc2ccccc2)cc1`, with 3.3%; and `CCCC(C)(COC(N)=O)COC(=O)NC(C)C` (centres unmarked), with 0.849%; and `CC1(C)CC(=O)C=C(NNC(=O)c2ccccc2)C1`, with 22.6%.
As for `Cc1cccc(OCc2nnc(NC(=O)Cc3cccs3)s2)c1`, the “hERG current change (%, negative = inhibition) at 10uM” value turned out to be 13.6%.
With `CCC/C=N/NC(=O)c1ccc(F)cc1`, the “hERG current change (%, negative = inhibition) at 10uM” value worked out at 8.78%.
Then `CN(C)S(=O)(=O)c1cccc(COC(=O)c2cc([N+](=O)[O-])ccc2N2CCOCC2)c1`, with -52.7%; and `Cc1cc(=O)cc(C)n1-c1ccc(O)cc1`, with 26.1%.
In the case of `CCn1nc(C)c(CNC(=O)C2CCC(=O)N(CCc3ccc(OC)cc3)C2)c1C` (centres unmarked), the “hERG current change (%, negative = inhibition) at 10uM” value was 11.6%.
Turning to `CNC(=O)CSc1nnc(-c2ccc(S(=O)(=O)N3CCCC3)cc2)n1-c1cccc(C)c1C`, the “hERG current change (%, negative = inhibition) at 10uM” value is on record as -7.16%.
The same measure for `O=C(O)CC/C(=N\Nc1ccc(S(=O)(=O)N2CCOCC2)cc1[N+](=O)[O-])c1cccs1`: 4.01%; for `O=C1C=C(N(CCO)CCO)C2(CCCCC2)O1`: 0.946%; for `O=C(CCNS(=O)(=O)c1ccccc1)N1CCN(c2ccccc2F)CC1`: -26.8%.
Then `Cc1ccc(C)c(NC(=S)NCCc2ccc(S(N)(=O)=O)cc2)c1`, with -5.97%; and `CCOc1ccccc1-c1nc(CN2CCC(C(=O)N3CCOCC3)CC2)c(C)o1`, with -5.13%; and `O=C(CSc1ccccc1C(=O)O)Nc1cccc(C(=O)O)c1`, with 6.88%.
For `CC(=O)c1sc(NC(=O)CCN2C(=O)c3ccccc3C2=O)nc1C`, the “hERG current change (%, negative = inhibition) at 10uM” value amounted to 10.6%.
Take `Cc1cc(N/C=C/C(=O)c2ccc(Br)cc2)no1`: the “hERG current change (%, negative = inhibition) at 10uM” value was 0.138%.
Take `COc1ccc(CNC(=O)C2CCN(c3nc(OC)nc(OC)n3)CC2)cc1`: the “hERG current change (%, negative = inhibition) at 10uM” value is on record as -65.1%.

The values are drawn from PMC4336329 (PLoS ONE, 2015).
